Measured values: PubChem BioAssay AID1240 (Sanford-Burnham Center for Chemical Genomics, 2008)
About 800 (1.6%) of roughly 50,000 compounds showed an effect of 50% or more. The list shows a part of the results.

What follows are compounds tested against Bcl-2-like protein 10 (Homo sapiens) (UniProt Q9HD36) (assay: TR3 peptide-Bcl-B binding displacers, biochemical primary FP assay, phenotype converters (AID 1240;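 further: 0% = Bcl-B with tracer peptide and DMSO and 100% = tracer peptide lacking Bcl-B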)). Conditions: GST-Bcl-B / FITC-TR3 peptide fluorescence polarization; stronger effect = higher value; compound at 3.75 mg/L.
Chain of UniProt Q9HD36 (Q9HD36 whole entry, looked up): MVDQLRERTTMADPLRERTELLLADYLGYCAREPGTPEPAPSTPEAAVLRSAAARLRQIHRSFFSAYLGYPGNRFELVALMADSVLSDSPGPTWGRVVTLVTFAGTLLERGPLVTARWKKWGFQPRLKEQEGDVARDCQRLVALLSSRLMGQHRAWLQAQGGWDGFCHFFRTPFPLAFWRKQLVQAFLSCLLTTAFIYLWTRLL

Row | Structure (SMILES) | displacement [%]
1 | C=CCc1ccccc1OCCn1cc(/C=C2/SC(=S)NC2=O)c2ccccc21 | 5.8
2 | CCOc1ccc(NC2=C(Cl)C(=O)N(c3ccc(C)cc3C)C2=O)cc1 | 2.1
3 | CC1CCOC(c2cccc([N+](=O)[O-])c2)O1 (centres undefined) | 4.1
4 | Cc1cccc(NC(=O)C2CN(S(=O)(=O)c3ccccc3)CCN2S(=O)(=O)c2ccccc2)c1 (centres undefined) | 0.8
5 | Cc1ccc(S(=O)(=O)N2CCN(C(=O)c3ccccc3)C2)cc1[N+](=O)[O-] | 5.8
6 | CC(C)C(=O)NC(=O)NCc1cccc([N+](=O)[O-])c1 | 9.7
7 | CC1(C)CC(C)(c2ccc([N+](=O)[O-])cc2)c2cc([N+](=O)[O-])ccc21 (centres undefined) | 3.9
8 | O=C(O)c1cc(NC(=O)c2ccc3c(c2)C(=O)N(N2C(=O)c4ccccc4C2=O)C3=O)cc(C(=O)O)c1 | -0.9
9 | COc1ccc(NC(=O)C(c2ccccc2)c2ccccc2)c([N+](=O)[O-])c1 | 14.6
10 | CSc1ccc(/C=C/C(=O)c2cccc(N)c2)cc1 | -6.9
11 | CC(=O)OC12CC3CC(C1)C(=O)C(C3)C2 | -13.3
12 | FC(F)(F)c1ccc(/C=N/N2CCN(Cc3cccc4ccccc34)CC2)cc1 | 16.9
13 | Cc1cccc(C)c1-n1c(C)n[nH]c1=O | 11.2
14 | CC(C)(C)c1cc(C(F)(F)F)c2c(=O)n(-c3ccccc3)[nH]c2n1 | 7.6
15 | COc1cccc(C(=O)N2CCN(c3ccccn3)CC2)c1 | -10.3
16 | Cc1ccc(OCC(=O)NCc2ccco2)c(C)c1 | -2.9
17 | O=C(Oc1cc(-c2ccccc2)c2oc(=O)sc2c1)c1ccc([N+](=O)[O-])cc1 | 6.4
18 | CN(CCN(C)/N=C/c1ccc(O)cc1O)/N=C/c1ccc(O)cc1O | -4.2
19 | N#Cc1nc(-c2ccc([N+](=O)[O-])cc2)oc1NCc1ccccc1 | 11.4
20 | c1cc(CSc2nc3ccccc3o2)nc(CSc2nc3ccccc3o2)c1 | -15.1
21 | C(=NN1CCN(c2ccccn2)CC1)c1cccc2ccccc12 | -7.3
22 | CCN(CC)CCOc1c(C)cc(C)cc1Cl | -0.6

Row | Structure (SMILES) | displacement [%]
23 | NC(=O)NC(c1ccccc1)c1ccc(I)cc1 (centres undefined) | 2.7
24 | CC(=O)N(/C=C/c1cc[n+](CCCS(=O)(=O)[O-])c2ccccc12)c1ccccc1 | -7.9
25 | Cc1cc(C(=O)O)c(-c2ccccc2)o1 | -8.4
26 | CCCOc1cccc(C(=O)Nc2cccc(NC(=O)c3ccco3)c2)c1 | 11
27 | Cc1ccc(NC(=O)C2CC=CCC2C(=O)O)c(Br)c1 (centres undefined) | 10.9
28 | CCCCc1cc(=O)oc2cc(OC(C)=O)ccc12 | -7.7
29 | OCc1ccc(-c2ccc(Cl)cc2Cl)o1 | -1.9
30 | COc1ccc2c(c1OC)C(=O)N(c1cccc(/C=C/C(=O)O)c1)C2 | 9.4
31 | Cc1cc(C)c(C2=C(C#N)C(N)=C(C#N)C3=CCCCCC32)c(C)c1 (centres undefined) | 13.4
32 | O=C(NCCNc1ccc(Cl)cc1[N+](=O)[O-])c1ccccc1Cl | 9.6
33 | NS(=O)(=O)c1ccc(NC(=O)CSc2nnnn2-c2ccccc2)cc1 | 0
34 | COc1cc(/C=C2\SC(=Nc3ccc(F)cc3)NC2=O)cc(OC)c1OC | -17
35 | CCOc1ccc(N(CC(=O)N2CCOCC2)S(=O)(=O)c2ccc(Br)cc2)cc1 | 0.5
36 | O=C1c2ccccc2C(=O)c2c1cc(NC1CCCCC1)c1nsnc21 | 15.8
37 | CC(C)(C)NC(=O)C1(C)CC2c3ccccc3C1c1ccccc12 (centres undefined) | 7.8
38 | O=C(CCN1CCOCC1)NC12CC3CC(CC(C3)C1)C2 | -7.7
39 | C=CCN1C(=O)/C(=C\c2ccc(OC(=O)c3cccc(Br)c3)cc2)SC1=S | 13.7
40 | CCOc1ccc(C2CC(=O)NC(SCc3ccccc3)=C2C#N)cc1OC (centres undefined) | -11.9
41 | CC1=CC(C)(C)N(C(=O)c2ccc(NS(C)(=O)=O)cc2)c2ccc(C)cc21 | 0.7
42 | CCN1CCN(CC(O)COc2ccccc2C(C)(C)C)CC1 (centres undefined) | -9.6
43 | CC(NC(=O)C(=O)Nc1ccccc1F)c1ccccc1 (centres undefined) | 0.3
44 | CC(NC(=O)C12CC3CC(CC(C3)C1)C2)C(=O)N1CCCC1 (centres undefined) | -7.2

Row | Structure (SMILES) | displacement [%]
45 | CCSc1nnc(NC(=O)CCCOc2ccc(Cl)cc2Cl)s1 | 23.4
46 | CC(=O)C1=C(O)C(=O)N(CCN2CCNCC2)C1c1ccccc1 (centres undefined) | -8
47 | COC(=O)CCC(=O)NNc1ccc([N+](=O)[O-])cc1 | 0.3
48 | Cc1cc(C(=O)Nc2cccc3ccccc23)c(-c2ccccc2)o1 | 10.4
49 | CCc1ccccc1N1C(=O)NC(=O)/C(=C\c2ccc(I)o2)C1=O | 8.5
50 | O=C1N=C(N2CCCCCC2)S/C1=C\c1cccc(O)c1 | -16.2
51 | C/C(=N/Nc1nc(-c2ccccc2)cs1)C(C)(C)C | -33.2
52 | CC(C(=O)Nc1ccccc1Br)N1C(=O)c2ccccc2C1=O (centres undefined) | -7.2
53 | CCCOc1ccc(N2C(=O)CC(N3CCC(C(N)=O)(N4CCCCC4)CC3)C2=O)cc1 (centres undefined) | -9.1
54 | CCCOc1ccc(C(=O)Nc2ccc(-c3nc4ccccc4o3)c(O)c2)cc1 | 15.1
55 | O=C(Nc1ccc(Cc2ccncc2)cc1)c1ccc(-c2cccc([N+](=O)[O-])c2)o1 | -4.7
56 | COc1ccc(/C=N/N2CCN(Cc3cccc4ccccc34)CC2)cc1Br | 6.7
57 | COc1ccc(OCC(=O)Oc2ccc3c(c2)C(C)=CC(C)(C)N3)cc1 | 11.4
58 | CCOC(=O)C1=C(C)N=c2s/c(=C\c3ccc(C)o3)c(=O)n2C1c1cccc(OC)c1 (centres undefined) | 73.3
59 | CCOc1cc(/C=C2/SC(=O)NC2=O)ccc1OCc1ccc(Cl)cc1 | -0.8
60 | CC1(C)CC(=NNC(=O)c2ccc(Br)o2)CC(C)(C)N1 | -5.8
61 | N#Cc1c(N)nc(SCC(=O)c2ccc(O)c(O)c2)c(C#N)c1-c1ccc(O)cc1 | -21.6
62 | CCOc1cc(/C=C(/C#N)C(=O)Nc2cccc(Br)c2)cc(Cl)c1OCC(=O)O | 2.7
63 | CCn1c2ccccc2c2nnc(SC)nc21 | 10.3
64 | Cc1ccc(CCNc2ccc3ccccc3c2)cn1 | 10.5
65 | O=C(Nc1ncc(Cc2ccc(Cl)c(Cl)c2)s1)c1ccccc1Cl | -0.2
66 | O=C1CC(N2CCN(c3ccc(Cl)cc3)CC2)C(=O)N1c1cc(Cl)cc(Cl)c1 (centres undefined) | 5.4

Row | Structure (SMILES) | displacement [%]
67 | O=[N+]([O-])c1ccc(Cl)c(/C=N/Nc2nc3ccccc3s2)c1 | 2.4
68 | CC1=NN(c2cccc(F)c2)C(=O)/C1=C\c1ccc(N(C)C)cc1 | 2.9
69 | Cc1cccc(N2C(=O)/C(=C/c3cccc(F)c3)SC2=S)c1C | -1.9
70 | O=C1/C(=C/c2ccccc2)SC(=S)N1/N=C/c1ccccc1 | 21.2
71 | C=CCSc1[nH]c(=O)c(C(=O)OCC)cc1C#N | 34.8
72 | CC1(C)CC(=O)C=C(/C=C/c2ccc(N3N=N3)cc2)C1 | -4.1
73 | CCOC(=O)/C(C#N)=C\c1cn(CCC#N)nc1-c1ccc(C)o1 | -1.3
74 | O=C1/C(=C/c2cccc([N+](=O)[O-])c2)SC(=S)N1C1CCS(=O)(=O)C1 (centres undefined) | 2.2
75 | O=C(N/C(=C/c1ccc(Cl)cc1)C(=O)N1CCCC1)c1ccccc1 | -6.6
76 | COc1ccc(OC)c(/C=c2\sc3nc4c(Br)c(C)c(C)cc4n3c2=O)c1 | 19.8
77 | COc1ccc(NC(=S)NC(=O)COc2ccc(Cl)cc2)cc1 | 12.2
78 | Clc1ccc(CN2CCN(Cc3ccncc3)CC2)cc1 | -4.9
79 | O=C(NC(=S)Nc1ccc([N+](=O)[O-])cc1O)C12CC3CC(CC(C3)C1)C2 | 6.1
80 | OCc1cccc(N=Cc2cccc(Cl)c2Cl)c1 | -2.8
81 | COc1ccc(OC)c(NC(=O)c2ccccc2[N+](=O)[O-])c1 | 8.3
82 | COc1ccc(Br)cc1C(=O)Nc1cc(C(F)(F)F)cc(C(F)(F)F)c1 | 1.7
83 | CCOC(=O)c1cnn(-c2ncnc3sc(CC)cc23)c1N | -7.3
84 | COc1ccc(C=O)c2c(OC)cccc12 | 11.9
85 | N/C(Cc1ccc([N+](=O)[O-])cc1)=N\OC(=O)c1ccc(Br)cc1 | 6.5
86 | C=CCNC(=O)C(=O)NCCCOC(C)C | 2.9
87 | Cc1c(NC(=O)Nc2cc(F)c(F)cc2Cl)c(=O)n(-c2ccccc2)n1C | 4.7
88 | Cc1c([N+](=O)[O-])c([N+](=O)[O-])nn1CC(=O)Nc1sc2c(c1C#N)CCCC2 | 2.3

Row | Structure (SMILES) | displacement [%]
89 | O=C(/C=C/c1ccccc1)Nc1ccc(I)cc1Cl | 9.5
90 | CC(=O)Nc1c(C)ccc2nsnc12 | 17.6
91 | O=S(=O)(NCCOc1ccc(Cl)cc1)c1ccc2ccccc2c1 | -4.5
92 | O=C(Nc1ccc(S(=O)(=O)NC(=O)C2CCCCC2)cc1)c1cccc(Br)c1 | 7.8
93 | Cc1ccc(-c2nc3ncccc3o2)cc1NC(=O)COc1cc(C)c(Cl)c(C)c1 | 11
94 | Cc1cccc(C)c1OCC(O)Cn1c2ccccc2c2ccccc21 (centres undefined) | 12
95 | Cc1cc(C=C2C(=O)NC(=S)NC2=O)c(-c2ccccc2)n1-c1ccccc1 | 162
96 | O=C(O)c1ccccc1N(Cc1ccccc1)S(=O)(=O)c1ccccc1 | 4.6
97 | CC(C)c1ccc(N2C(=O)NC(=O)/C(=C/c3ccc(Br)o3)C2=O)cc1 | -15.8
98 | O=C(/C=C/c1ccccc1Cl)Nc1cccc(F)c1 | 4.9
99 | COc1cccc(C2=NN(C(=O)CCc3ccccc3)C(O)(C(F)(F)F)C2)c1 (centres undefined) | 0.8
100 | Oc1ccc(/C=N/Nc2cc(-c3ccccc3)nc(-c3ccccc3)n2)cc1 | -1.2
101 | C=C1c2cc(C)ccc2NC(=O)N1c1ccc(Cl)c(Cl)c1 | -3.1
102 | CCc1cccc(C)c1NC(=O)/C=C/c1ccc(F)cc1 | 8.5
103 | CCOC(=O)C(=O)N1CCN(c2cccc(Cl)c2)CC1 | -1.6
104 | Cc1c(NC(=O)c2ccccc2[N+](=O)[O-])cccc1-c1nc2cc(Cl)ccc2o1 | 34.1
105 | O=C(Nc1ccccc1)NC1CCCCC1 | 6.9
106 | O=C1c2cccc3cccc(c23)C(=O)N1Oc1ccc([N+](=O)[O-])cc1[N+](=O)[O-] | 9.1
107 | COc1cc(C2C3=C(Nc4c2c(=O)n(C)c(=O)n4C)c2ccccc2C3=O)cc(OC)c1OC (centres undefined) | 1.8
108 | NC(=O)NC(c1ccccc1)c1ccccc1Br (centres undefined) | 2.2
109 | O=[N+]([O-])c1ccccc1-c1nc(-c2ccco2)c(-c2ccco2)[nH]1 | 31.6
